Test results reported in PubChem BioAssay AID485364 (National Center for Advancing Translational Sciences (NCATS), 2010).
About 11,000 (3.1%) of roughly 360,000 compounds were called active. The inconclusive results got no clear call from the source; some entries with a clear call stand among them for comparison. Calls follow the shape of the dose curve; as a rule, active = well fitted inhibition curve with a large enough effect; inconclusive = small, poorly fitted or top-dose-only effect; inactive = no such curve, though single readings can be large or run the other way. Potencies of inconclusive entries are left out as doubtful fits.

target: Schistosoma mansoni thioredoxin glutathione reductase (TGR) (UniProt Q962Y6); test: qHTS Assay for the Inhibitors of Schistosoma Mansoni Peroxiredoxins; settings: purified TGR, DTNB reduction, TNB absorbance 405 nm; series mostly up to 114 µM; also: nearly all actives have a fitted effect of over 60% in size
Text: Schistosomiasis is a major neglected tropical disease that currently affects over 200 million. It is caused by different species of flatworms, such as Schistosoma mansoni. Over the last century, drugs to treat the disease have evolved from potassium antimonyl tartrate, artemisinin, oxamniquine, to praziquantel, with praziquantel remaining the universally-used single drug of choice over the past three decades. However, transmission rates have changed little with praziquantel, and there is evidence for the development of drug resistant parasites. Because there is currently no suitable alternative therapy available, there is an urgent need to identify new targets and drugs for schistosomiasis treatment. Thioredoxin glutathione reductase (TGR), one uniquely positioned S. mansoni enzyme, has been identified as a major component of the worms' distinct and compressed antioxidant "firewall". TGR is a multifunctional enzyme that catalyzes the interconversion between reduced and oxidized forms of both glutathione (GSH) and thioredoxins, thus making it an attractive new antiparasitic target. Recently, a quantitative high-throughput screen of the NIH Molecular Libraries Small Molecule Repository (MLSMR, ~71K at the time of the screen in 2007) was performed using an assay that targeted both TGR and peroxiredoxin2 (Prx2, an H2O2-reducing enzymatic component of the S. mansoni redox "firewall") by following the decrease of NADPH fluorescence. […] Additional mechanistic link between exogenous NO donation and parasitic injury for the oxadiazole-2-oxide class of compounds was also expanded and better defined. Although the screen addressed both TGR and Prx2, the assay required post-screen target deconvolution for further characterization of the actives. In addition, the fluorescence assay was also subject to fluorescence interference from compound library members. We have developed a 1536-well-based kinetic HTS assay to address TGR alone. The assay followed the reduction of 5, 5'-dithiobis (2-nitrobenzoic acid) (DTNB) (Ellman's reagent) by NADPH and measured the increase in absorbance at 412 nm of the reaction product, TNB. […] This assay format can be used to screen the current MLSMR collection (with >300K compounds available) to find novel TGR inhibitors. Furoxan is a good choice to serve as a positive control in the primary HTS assay.
Three microliters of reagents (100 uM NADPH and 20 nM TGR or 100 uM NADPH as no-enzyme control) were dispensed into 1,536-well black clear-bottomed plates. Compounds (23 nL) were transferred via Kalypsys pin tool equipped with 1536-pin array (10 nL slotted pins, V&P Scientific, San Diego, CA). The plates were then be incubated for 15 min at room temperature, and 1 uL aliquot of 500 uM NADPH were added, immediately followed by a 1 uL aliquot of 15 mM DTNB to start the reaction. The plate was transferred to a ViewLux high-throughput CCD imager (Perkin-Elmer, Wellesley, MA) where kinetic measurements of the TNB absorbance were acquired using a 405 excitation filter. Throughout the screen, reagent bottles and all liquid lines were made light-tight to minimize reagent degradation. All screening operations were performed on a fully integrated robotic system (Kalypsys, San Diego, CA) containing one RX-130 and two RX-90 anthropomorphic robotic arms (Staubli, Duncan, SC). Library plates were screened starting from the lowest and proceeding to the highest concentration, and a "double-dipping" step of the highest concentration was required to access higher concentrations of compounds. Vehicle-only plates, with DMSO being pin-transferred to the entire column 5-48 compound area, were inserted uniformly at the beginning and the end of each library in order to monitor for and record any shifts in the background, which can be affected by reagent dispensers or loss in enzyme activity overtime. […]
Potency is read from the fitted curve at half-maximal effect; tags tell the direction and shape of the fitted curve.

SMILES	Potency
COc1ccc(C(=O)NC(=S)NCc2ccco2)cc1Br	active: 50.1 µM
Cc1cc(NS(=O)(=O)c2ccccc2)cc(Cl)c1O	inconclusive [inhibitor, full curve, poor fit]
Cn1c(SCc2ccc(F)cc2)nnc1-c1ccccn1	inactive
O=C1c2ccccc2C(=O)N1SC1CCCCC1	active: 44.7 µM
O=C(/C=C/c1cccs1)N1CCC2(CC1)Oc1ccc(F)cc1C(=O)C21CC(c2ccc(Cl)cc2)=NO1 (stereo not given)	inactive
Cc1cccc(N2CCN(C(=O)C3COc4ccccc4O3)CC2)c1C (stereo not given)	inactive
COc1cccc2c(=S)c(CCC(C)=O)c(C)[nH]c12	inconclusive [inhibitor, partial curve]
O=C(NC1CC1)C1CC(=O)N(c2cccc(Cl)c2)C1 (stereo not given)	active: 7.08 µM
Cc1ccc(-c2nc(Nc3cccc(C)c3)sc2CC(=O)O)cc1	inconclusive [inhibitor, partial curve]
O=C(CN1CCN(c2ccccc2F)CC1)c1ccc(O)c(O)c1	inconclusive [inhibitor, partial curve]
COc1cc(C(c2nnnn2C2CCCC2)N2CCc3ccccc3C2)ccc1O (stereo not given)	inconclusive [inhibitor, full curve, poor fit]
COc1ccc(N2CCN(C(=O)Cn3c(=O)[nH]c4ccccc4c3=O)CC2)cc1	inconclusive [inhibitor, single point]
Cc1cc(C)c(C(=O)COC(=O)c2ccc([N+](=O)[O-])o2)cc1C	inconclusive [inhibitor, full curve]
O=C1NC(=S)NC(=O)C1=Cc1cccc2cc3ccccc3cc12	inconclusive [inhibitor, full curve]
COc1cc(-c2nc3ccc(C)cn3c2NCc2ccccc2)ccc1SC1CCCCC1	inactive
Cc1[nH]c2ccccc2c1/C=N/NC(N)=S	inactive
Cc1cc(N=Nc2ccc(Cl)cc2)cc(CN2CCOCC2)c1O	inconclusive [inhibitor, partial curve]
Cc1ccc(-n2c(SCC3CCCCO3)nnc2-c2ccco2)cc1 (stereo not given)	inconclusive [inhibitor, partial curve]
CC(c1nnc(SCC(=O)Nc2sccc2C#N)n1-c1ccc(Cl)cc1)N(C)C (stereo not given)	inconclusive [inhibitor, partial curve]
Cc1onc(-c2ccccc2Cl)c1C(=O)Nc1ccc(Cl)cn1	inactive
O=C(NC(=S)NC1CCCCC1)c1ccccc1	active: 1 µM
Cc1ccnc(Nc2nc(-c3ccc(O)cc3)cs2)c1	inconclusive [inhibitor, full curve, poor fit]
O=C(O)CC/C(=C\c1cc([N+](=O)[O-])ccc1Cl)c1nc2ccccc2s1	inactive
CC(=O)c1ccc(NC(=O)c2ccc(N3C(=O)c4cccnc4C3=O)cc2)cc1	inconclusive [inhibitor, single point]

SMILES	Potency
COc1ccc(S(=O)(=O)n2nc(OC(=O)c3ccco3)cc2N)cc1	active: 22.4 µM
Cn1cc(S(=O)(=O)N2CCOCC2)cc1C(=O)Nc1ccc(Cl)c(C(F)(F)F)c1	inconclusive [inhibitor, single point]
CCc1ccc(NCCC(=O)c2ccc(Cl)cc2)cc1	inconclusive [inhibitor, single point]
Cc1cc(Cl)ccc1NC(=S)NCCC(c1ccccc1)c1ccccc1	inactive
CN(C)c1ccc(C2Nc3ccccc3C(=O)N2CCCN2CCOCC2)cc1 (stereo not given)	inactive
CCN(CC)c1ccc(/C=C2\C(=O)NC(=O)N(Cc3ccco3)C2=O)cc1	inconclusive [inhibitor, full curve]
CCN(c1ccccc1)S(=O)(=O)c1cccc(C(=O)NCc2ccccc2CN2CCOCC2)c1	inconclusive [inhibitor, partial curve]
Cc1cc(C(=O)N/N=C2\CC(=O)c3ccccc32)c(C)n1-c1ccc(F)cc1	active: 35.5 µM
CCOCCCNC(=O)C1CCN(S(=O)(=O)c2cc(Br)cc3c2N(C(=O)CC)CC3)CC1	inactive
Cc1ccc(N2C(=O)CC(Sc3nccc(C)n3)C2=O)cc1 (stereo not given)	inconclusive [inhibitor, single point]
CCOC(=O)N1CCN(C(c2cccnc2)c2ccc3cccnc3c2O)CC1 (stereo not given)	active: 0.316 µM
Cc1cccc(N=Cc2cc3c(cc2[N+](=O)[O-])OCO3)c1	inconclusive [inhibitor, partial curve, poor fit]
COc1ccc(/C=C2/C(=O)NC(=O)N(c3ccccc3)C2=O)cc1CN1C(=O)c2ccccc2C1=O	inconclusive [inhibitor, full curve]
CC(C)C1Cc2c(C#N)c(N)sc(=S)c2CO1 (stereo not given)	active: 10 µM
O=C1OC(c2cccs2)=N/C1=C\c1ccc(-c2ccccc2Cl)o1	inconclusive [inhibitor, partial curve]
Cc1cc(C)nc(NS(=O)(=O)c2ccc(NC(=S)NC(=O)CC(C)C)cc2)n1	inconclusive [inhibitor, full curve, poor fit]
CCOC(=O)c1c(C)[nH]c(C)c1C(=O)COC(=O)/C=C/c1ccc(OC)cc1	inactive
COCCCN1CC(=O)N2Cc3[nH]c4ccccc4c3C[C@H]2C1=O	inactive
Cc1cc(C)n2c(SCC(=O)Nc3ccc(F)cc3)nnc2n1	inconclusive [inhibitor, single point]
Cc1ccc(CN2CCNC(=O)C2CC(=O)NC2CCCCCC2)o1 (stereo not given)	inconclusive [inhibitor, partial curve]
CCN(CC)CCCN(C(=O)c1cccs1)c1nc(-c2ccc(OC)cc2)cs1	inconclusive [inhibitor, full curve, poor fit]
Cc1cc(C(=O)CSc2n[nH]c(-c3ccccc3F)n2)c(C)n1Cc1cccs1	inconclusive [inhibitor, single point]
O=C1CN(S(=O)(=O)c2ccccc2Cl)CCN1	inconclusive [inhibitor, full curve]
COc1ccc2nc(N(Cc3cccnc3)C(=O)C3CCCCC3)sc2c1	inactive

SMILES	Potency
CC(C)COc1ccc(C(=O)NCc2ccco2)cc1	inconclusive [inhibitor, partial curve]
O=C(CC1C(=O)NCCN1Cc1ccc(-c2ccccc2)cc1)NCC1CC1 (stereo not given)	inconclusive [inhibitor, full curve]
CCCOc1ccc(N2C(=O)CC(N(O)c3ccccc3)C2=O)cc1 (stereo not given)	inconclusive [inhibitor, partial curve]
O=C(COC(=O)C1CC(=O)N(Cc2ccco2)C1)c1ccc(OC(=O)c2ccco2)cc1 (stereo not given)	active: 11.2 µM
CCCS(=O)(=O)c1c(S(=O)(=O)CCC)c2c3ccccc3ccn2c1C(=O)OC	inconclusive [inhibitor, partial curve, poor fit]
Cc1cc(N2C(=O)C(O)=C(C(=O)c3ccc(C)o3)C2c2cccc(Oc3ccccc3)c2)no1 (stereo not given)	inconclusive [inhibitor, partial curve]
O=C1OC2(CCCCC2)CC2=C1C1O[C@](c3ccsc3)(Cc3ccccc31)O2	inconclusive [inhibitor, full curve, poor fit]
COc1ccc(C(=O)/C=C2/c3ccccc3CC(C)(C)N2C)cc1	inconclusive [inhibitor, partial curve]
CCC(=O)NC(c1ccc(C)cc1)c1cc([N+](=O)[O-])c2cccnc2c1O (stereo not given)	inactive
Cc1ccc(C2C(C#N)=C(N)SC(N)=C2C#N)cc1	inconclusive [inhibitor, full curve, poor fit]
Brc1ccc(CN2CC[C@H]3C=CCc4cccc(c43)C2)cc1	inconclusive [inhibitor, single point]
CSc1nnc(N2C(=O)C(O)=C(C(=O)c3ccco3)C2c2ccccc2)s1 (stereo not given)	inconclusive [inhibitor, partial curve]
COc1ccc2[nH]c(=O)c(-c3nnn(-c4ccccc4)n3)cc2c1	inconclusive [inhibitor, partial curve]
NC(=O)c1c(NC(=O)Cn2nc(C(=O)O)c3ccccc3c2=O)sc2c1CCC2	inconclusive [inhibitor, partial curve]
OCCCNc1cc(-c2ccccc2)nc2cc(-c3ccc(F)cc3)nn12	inconclusive [inhibitor, single point]
O=[N+]([O-])c1ccc(/C=C/c2ccc3ccccc3n2)cc1	inactive
C/C=C(\C)c1nnc(NC(=O)C(C)C)s1	inactive
Cc1ccc(N2C(=O)NC(=O)/C(=C/c3ccc(-c4ccc(C(=O)O)c(Cl)c4)o3)C2=O)cc1	inconclusive [inhibitor, full curve, poor fit]
CCOc1ccc(CCNC(=O)CCc2c(C)nc3cc(-c4ccccc4OC)nn3c2C)cc1	inconclusive [inhibitor, full curve, poor fit]
Cc1ccc(CS(=O)Cc2ccc(C(=O)NC3CCC(C)CC3)o2)cc1 (stereo not given)	inconclusive [inhibitor, partial curve]
Cc1ccc(/C=C/C(=O)N2CCN(S(=O)(=O)c3ccc(C)c(C)c3)CC2)o1	active: 12.6 µM
COC(=O)CCCC1=CC2=C(c3ccccc3)C(=O)C(C)(OC(=O)C3CCCC3)C(=O)C2=CN1Cc1ccc(OC)cc1 (stereo not given)	active: 22.4 µM
